Test results: PubChem BioAssay (NCI)
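Following 48 hours of exposure in 96-well plates, responses at five concentrations were used to interpolate endpoints linearly. GI50 = concentration required for 50% inhibition of growth. TGI: concentration producing complete growth inhibition.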 Calls of active or inactive are those of the source.

What was measured:
CCRF-CEM leukemia = assay: DTP human tumour cell line panel, 48 h
SR leukemia = assay: DTP human tumour cell line panel, 48 h

CCOC(=O)c1ccc(N/N=C/c2cn(-c3ccc(S(N)(=O)=O)cc3)nc2-c2ccc(S(C)(=O)=O)cc2)cc1
GI50 (CCRF-CEM leukemia): inactive
TGI (CCRF-CEM leukemia): > 100 µM
GI50 (SR leukemia): inactive
TGI (SR leukemia): > 100 µM
